Some of these densities may be calculated back from excess volumes.
Assay: xn = mol fraction of the nth substance listed
Settings: 100 kPa

CC[n+]1ccn(C)c1.N#C[N-]C#N + CCCCO
mass density [kg/m3]
Settings	x1 = 0.1015	x1 = 0.2007	x1 = 0.3006	x1 = 0.4008	x1 = 0.5021	x1 = 0.6014	x1 = 0.7012	x1 = 0.8016	x1 = 0.9012	x1 = 1
298.15 K	894.5	952	–	1023.9	1048.6	1067.6	1083.7	1094.1	1098.9	1103
303.15 K	890.7	948.2	991.4	1020	1044.7	1063.7	1079.9	1090.3	–	1099.7
308.15 K	886.8	944.3	–	–	1040.9	1059.9	–	–	1091.2	1096.4
313.15 K	882.9	–	–	1012.2	1037	1056	1072.1	1082.5	1087.3	1093.1
318.15 K	878.9	936.4	979.7	1008.3	1033	–	1068.1	1078.5	1083.4	1089.8
323.15 K	875	–	975.7	–	1029	1048	1064.2	1074.6	1079.4	1086.4

CCCCO + CC[n+]1ccn(C)c1.N#C[N-]C#N
x2 = 0
Settings	mass density [kg/m3]
298.15 K	805.8
303.15 K	801.9
308.15 K	798.1
313.15 K	794.3
318.15 K	790.2
323.15 K	786.3

Source: a compilation of properties of binary mixtures (doi:10.1021/acs.jced.3c00239)
